Laboratory results taken from PubChem BioAssay AID1346428 (National Center for Advancing Translational Sciences (NCATS), 2018).
Out of some 48,000 compounds screened, about 1,200 (2.5%) were called active. Roughly 2% stayed inconclusive and do not appear here.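 How the source made its calls: active means activation of at least 60% and not above a set upper limit (about 1 call in 100 departs from these limits); inconclusive means activation of 40% to 60%, or above that upper limit; inactive means activation under 40%.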 The list shows a part of the results.

molecular target: Probable G-protein coupled receptor 32 (Homo sapiens) (UniProt O75388); test: qHTS for Agonists of Human Resolvin D1 Receptor DRV1; conditions: CHO-K1 GPR32 beta-arrestin PathHunter luminescence, 90 min; at 76.9 µM; stronger effect = higher value; zero percent set by DMSO-only wells; further: 0% is about no effect
UniProt O75388, sequence (O75388 whole entry, looked up, the tested form may be a part): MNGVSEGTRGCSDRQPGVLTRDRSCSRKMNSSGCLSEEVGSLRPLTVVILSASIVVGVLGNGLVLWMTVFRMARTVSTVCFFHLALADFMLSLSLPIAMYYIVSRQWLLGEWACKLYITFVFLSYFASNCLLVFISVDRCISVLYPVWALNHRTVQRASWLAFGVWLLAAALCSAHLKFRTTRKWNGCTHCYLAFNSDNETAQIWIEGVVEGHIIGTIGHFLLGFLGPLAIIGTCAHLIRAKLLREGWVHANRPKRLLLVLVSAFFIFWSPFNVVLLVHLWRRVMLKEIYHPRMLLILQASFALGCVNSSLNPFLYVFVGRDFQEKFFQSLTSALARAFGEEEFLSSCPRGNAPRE
How it was run: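 Agonism was scored by beta-Gal fragment complementation (chemiluminescent read, 1 h detection at ambient temperature) reporting beta-arrestin binding to GPR32 in engineered CHO-K1 cells. Compound treatment lasted 90 min at 37 C, normalized to a DMSO basal control.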

activation, inactive:
COc1ccc(NC(=O)C(=O)NCC2(c3ccc(OC)c(OC)c3)CCCC2)cc1 -1.07%
Cc1cc(C)c(NS(=O)(=O)c2ccc(-c3cnc(C4CC4)o3)cc2)c(C)c1 22.2%
COc1cccc(CNC(=O)Cc2csc3ccccc23)c1OC -12.2%
CCCOC(=O)c1c(NC(=O)C2c3ccccc3Oc3ccccc32)sc2c1CCCC2 -5.04%
COc1cccc(OCc2nc3ccccc3n2Cc2ccccc2C)c1 -17.7%
COc1ccc(NC(=O)CCCSc2nc(-c3ccco3)cc(C(F)(F)F)n2)c(OC)c1 -20.7%
COc1cc(NC(=O)Cn2nnc(-c3ccc(C(F)(F)F)cc3)n2)c(C(=O)O)cc1OC 0.083%
CCOc1ccc(N(CC)C(=O)C2CCN(S(=O)(=O)c3cccc4nonc34)CC2)cc1 3.15%
COc1ccc(CCC(=O)NC2CC(=O)N(c3cccc(F)c3)C2)cc1 (centres undefined) -14.2%
O=C(Cn1c(=O)oc2cc(S(=O)(=O)NCc3ccccc3)ccc21)Nc1ccc(F)c(Cl)c1 21%
CCC(=O)n1nc(-c2cccnc2)nc1NCc1ccc(F)cc1 -7.58%
Cc1ccc(CN2CCSc3ccc(C(=O)NCCc4ccccc4)cc32)cc1 -21.2%
COc1ccc(Cl)cc1NC(=O)C1CCN(c2nnc(C)c3c(C)n(-c4ccccc4)nc23)CC1 -4.15%
CCCCOc1ccc(C(C)NC(=O)c2cccc(Nc3nc4ccccc4n4nnnc34)c2)cc1 (centres undefined) 23.8%
CCOc1ccc(CCNC(=O)CSc2n[nH]c(-c3ccccc3)n2)cc1OCC -6.08%
Cc1c(CC(=O)N2CCCCC2)c(=O)oc2c(C)c3occ(C(C)(C)C)c3cc12 -14.8%
Oc1ccccc1C=NCc1ccccc1 -22.1%
CN(C)C=NC(=O)c1cc2c(n(-c3ccccc3)c1=O)CC(C)(C)CC2=O 3.46%
O=c1n(Cc2cccc(F)c2)c2ccccc2c2nc(-c3ccccc3)nn12 7.52%
CN(C)c1cc2c(cc1NS(=O)(=O)c1ccccc1)n(C)c(=O)n2C -11.8%
COc1cccc(CSc2nc3n(n2)C(c2cccc(F)c2)C(C(=O)Nc2ccccc2C)=C(C)N3)c1 (centres undefined) 13.7%
Cc1ccc(O)c(NC(=O)c2cc(-c3ccc4c(c3)OCO4)on2)c1 -6.89%
COc1ccc(CN(C(=O)Nc2cccc(Cl)c2)c2ccccn2)cc1OC -33.1%
Cc1cccc(N2CCN(C(=O)c3ccc(CS(=O)c4cccc(Cl)c4)o3)CC2)c1C (centres undefined) -8.76%
Cc1ccc(-c2[nH]c3ccccc3c2SCCNC(=O)c2ccc(S(=O)(=O)N(C)C)cc2)cc1 -22%
COc1ccc(CNC(=O)CCCN2C(=O)CSc3c2c(C)nn3-c2ccccc2)c(OC)c1 1.5%
COCCNC(=O)CCC(=O)N1Cc2cccc(OC)c2Oc2ncccc21 -3.12%
CCSc1nnc2c(n1)OC(c1ccc(C)cc1)N(C(C)=O)c1ccccc1-2 (centres undefined) -6.02%
COc1ccc(Cl)cc1NC(=O)CCS(=O)(=O)c1cccc2nonc12 -19.4%
Cc1ccc(NC(=O)C(=O)NCC(c2cccnc2)N2CCOCC2)cc1Cl (centres undefined) 24.2%
Cc1coc2c(C)c3oc(=O)c(CC(=O)NCCc4ccc(Cl)cc4)c(C)c3cc12 -25.3%
Cc1c(NC(=O)c2cc(=O)c3ccccc3o2)c(=O)n(-c2ccccc2)n1C -17.9%
COc1ccc(NC(=O)C2CCCN(S(=O)(=O)c3ccc4c(c3)oc(=O)n4C)C2)c(OC)c1 (centres undefined) -0.112%
Cc1cccc(CSc2nc(-c3cccs3)ccc2C#N)c1 -7.59%
C=CCc1c(C)nc2nc(SCC(=O)Nc3ccc(C)c(C)c3)nn2c1C -13.5%
COCCCNC(=O)c1ccc(-n2c(-c3ccccc3)cc3c2CCC(C)C3)cc1 (centres undefined) -36.6%
COc1cccc(N2CCN(C(=O)c3cccn3-c3nnc(N4CCCC4)s3)CC2)c1 2.78%
CN1CCC2(CCN3CCc4c(oc5ccccc45)C3C2)N(C)C1=O (centres undefined) -8.2%
CCCCOc1ccc(S(=O)(=O)Nc2ccc(-c3ccc(N4CCC(C)CC4)nn3)cc2)cc1 -10.3%
COc1ccc(CCN2C(=O)c3oc4cc(C)cc(C)c4c(=O)c3C2c2ccccc2F)cc1OC (centres undefined) -1.33%
COc1ccc(S(=O)(=O)Nc2ccc(-c3cn4ccsc4n3)cc2)cc1C -5.45%
COc1cccc(-c2nnc(SCC(=O)NC3CCCCC3)o2)c1 0.0986%
O=C(O)COc1nn(Cc2ccccc2)c2ccccc12 -6.04%
CCCn1c(=O)c2sccc2n2c(CCCC(=O)Nc3ccc(Oc4ccc(Cl)cc4)cc3)nnc12 -8.97%
Cc1ccc(NC(=O)c2ccc(CN3C(=O)CCn4nc(C)cc43)cc2)c(Cl)c1 40%
CC(=O)c1ccc(NS(=O)(=O)c2ccc(-c3cc(C)no3)s2)cc1 -10.4%
CCOc1ccc(CCNC(=O)C2CCN(C(=O)c3cc4sccc4n3CC)CC2)cc1OCC -1.76%
O=C(Nc1ccccc1C(F)(F)F)c1ccc2oc(=O)c(S(=O)(=O)c3ccc(F)cc3)cc2c1 5.98%
Cn1cc(C(=O)OCC2CCN(CCNS(C)(=O)=O)CC2)c2ccccc21 6.08%
COc1ccc(NC(=O)c2c(NC(=O)COc3ccccc3)sc3c2CCC(C)C3)cc1 (centres undefined) 0.795%
O=C(NCCC1=CCCCC1)c1ccc2c(=O)n3nc(Nc4ccccc4)sc3nc2c1 -13.7%
Cc1ccc(NC(=O)CSc2nnc3[nH]c(=O)cc(-c4ccccc4)n23)cc1Cl -9.48%
COCCCNC(=O)c1cn(CCOC)c(=O)c2c1c1ccccc1n2C 1.87%
Cc1ccccc1CNC(=O)CN1C(=O)CSc2ccc(S(=O)(=O)N(C)C)cc21 8.98%
